Laboratory results published in PubChem BioAssay AID624417 (National Center for Advancing Translational Sciences (NCATS), 2012).
About 6,400 (1.6%) of roughly 410,000 compounds were called active. This list was built around the results that the source calls inconclusive (neither active nor inactive); the mix of calls is not that of the screen. The call rests on the fitted dose curve; in most records, active means well fitted inhibition curve with a large enough effect; inconclusive means small, poorly fitted or top-dose-only effect; inactive means no such curve, though single readings can be large or run the other way. Potencies of inconclusive entries are left out as doubtful fits.

Biological target: Glucagon-like peptide 1 receptor (Homo sapiens) (UniProt P43220)
Chain of UniProt P43220 (P43220 whole entry, looked up): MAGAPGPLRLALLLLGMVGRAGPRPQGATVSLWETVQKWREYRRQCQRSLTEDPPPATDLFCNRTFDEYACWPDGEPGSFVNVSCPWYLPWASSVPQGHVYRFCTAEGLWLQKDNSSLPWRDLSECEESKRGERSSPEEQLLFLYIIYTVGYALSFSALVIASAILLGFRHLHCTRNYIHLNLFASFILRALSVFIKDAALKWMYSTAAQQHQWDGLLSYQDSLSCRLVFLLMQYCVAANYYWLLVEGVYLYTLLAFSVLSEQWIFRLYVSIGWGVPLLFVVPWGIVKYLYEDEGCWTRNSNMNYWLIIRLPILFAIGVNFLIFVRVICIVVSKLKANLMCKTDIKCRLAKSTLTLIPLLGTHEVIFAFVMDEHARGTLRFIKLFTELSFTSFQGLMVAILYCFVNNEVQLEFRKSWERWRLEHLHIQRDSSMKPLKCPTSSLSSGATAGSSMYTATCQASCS
Assay: qHTS of GLP-1 Receptor Inverse Agonists (Inhibition Mode); further: nearly all actives have a fitted effect of over 55% in size
Settings: HEK293 GLP-1R CRE-luciferase, luminescence, 24 h, GLP-1R form is constitutively active; series mostly up to 38.3 µM
In short: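 Constitutively active GLP-1R drives a cAMP-responsive luciferase in stably transfected HEK293 cells; test compounds are added after overnight (12 h) attachment and left 24 hr, and signal loss in luminescence marks inhibition.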
Potency means the concentration at half of the fitted maximal effect; tags describe the fitted curve by direction and shape.

**Q.** For COc1ccc(CCN2C(=S)N(c3ccc(Cl)cc3)C(=O)C2CC(N)=O)cc1OC (centres undefined), which Potency is on record?
**A.** Its Potency is inconclusive [inhibitor, partial curve].

**Q.** Which Potency does the source give for CC(C)c1nnc(NC(=O)C2c3ccccc3Oc3ccccc32)s1 here?
**A.** Its Potency is inconclusive [inhibitor, partial curve].

**Q.** Which Potency does the source give for Cc1nc(Nc2cccc(C(C)O)c2)c2nnn(Cc3ccccc3F)c2n1 (centres undefined) here?
**A.** The Potency was inconclusive [inhibitor, single point].

**Q.** With Cc1ccc(CNC(=O)COc2cccc3c2OC(C)(C)C3)cc1 as the compound, how does the Potency read?
**A.** The Potency was inconclusive [inhibitor, partial curve, poor fit].

**Q.** With CCC(=O)Nc1nc(C)c(-c2csc(Nc3ccccn3)n2)s1 as the compound, how does the Potency read?
**A.** The Potency was inconclusive [inhibitor, single point].

**Q.** With O=C1C2C(c3ccccc3)C=CC(c3ccccc3)C2C(=O)N1CCO (centres undefined) as the compound, how does the Potency read?
**A.** The Potency was inconclusive [inhibitor, partial curve, poor fit].

**Q.** For O=S(=O)(NCCc1ccccc1)c1ccc(Br)s1, which Potency is on record?
**A.** The Potency was inconclusive [inhibitor, single point].

**Q.** For Cc1ccc(NS(=O)(=O)c2ccc3[nH]c4c(c3c2)CCCCC4)cc1, which Potency is on record?
**A.** Its Potency is active: 11.2 µM.

**Q.** With CCCCN(C)C(=O)c1nc2ccccn2c1CN1CCC[C@H]1CO as the compound, how does the Potency read?
**A.** The Potency was “inactive”.

**Q.** Cc1ccc(C(=O)c2cncc(Br)c2)cc1 was tested. Which Potency did it give?
**A.** The Potency was inconclusive [inhibitor, single point].

**Q.** Cc1ccc2c(CC(=O)OCC(=O)N(CC(C)C)c3c(N)n(Cc4ccccc4)c(=O)[nH]c3=O)coc2c1 was tested. Which Potency did it give?
**A.** Its Potency is inconclusive [inhibitor, single point].

**Q.** Which Potency does the source give for COC(=O)c1ccccc1OC(=O)c1cc2ccccc2oc1=O here?
**A.** Its Potency is “inactive”.

**Q.** COc1ccc(N(CC(=O)NCCSCc2ccco2)S(=O)(=O)c2ccccc2)cc1Cl was tested. Which Potency did it give?
**A.** Its Potency is inconclusive [inhibitor, partial curve].

**Q.** For O=C(c1cc(COc2c(F)cccc2F)on1)N1C[C@H]2CC[C@H]1C2, which Potency is on record?
**A.** The Potency was inconclusive [inhibitor, single point].

**Q.** CCNc1nc(NC(C)(C)C)nc(N2CCCCC2)n1 was tested. Which Potency did it give?
**A.** Its Potency is inconclusive [inhibitor, single point].

**Q.** How did the Potency turn out when CCOC(=O)N1CCN(C(=O)c2ccc3c(c2)N(Cc2ccccc2)CCS3)CC1 was run?
**A.** Its Potency is “inactive”.

**Q.** Clc1ccccc1CN1CCN(/N=C/C=C/c2ccco2)CC1 was tested. Which Potency did it give?
**A.** Its Potency is inconclusive [inhibitor, partial curve, poor fit].

**Q.** CC1CCc2c(sc(NC(=O)c3cc(-c4ccc(Br)cc4)on3)c2C(N)=O)C1 (centres undefined) was tested. Which Potency did it give?
**A.** Its Potency is “inactive”.

**Q.** Cc1ccc(NC(=O)C(c2ccc(Cl)cc2Cl)N2CCCC2)cc1 (centres undefined) was tested. Which Potency did it give?
**A.** The Potency was active: 10 µM.
